T1: activin B (UniProt P09529 293-407)
T1 sequence (looked up): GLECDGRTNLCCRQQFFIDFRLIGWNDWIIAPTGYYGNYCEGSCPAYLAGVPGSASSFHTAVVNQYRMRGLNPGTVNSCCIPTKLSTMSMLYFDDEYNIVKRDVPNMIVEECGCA

T2: BMP-9 (UniProt Q9UK05 320-429)
T2 sequence (looked up): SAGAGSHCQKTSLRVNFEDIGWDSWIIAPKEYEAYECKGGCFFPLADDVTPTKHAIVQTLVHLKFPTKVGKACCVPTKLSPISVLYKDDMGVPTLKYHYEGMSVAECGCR

T3: BMP-10 (UniProt O95393 317-424)
T3 sequence (looked up): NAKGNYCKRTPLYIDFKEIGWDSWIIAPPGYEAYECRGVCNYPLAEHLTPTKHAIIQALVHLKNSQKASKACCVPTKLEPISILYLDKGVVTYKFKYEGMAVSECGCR

T4: recombinant human activin A (human, UniProt P08476 311-426)
T4 sequence (looked up): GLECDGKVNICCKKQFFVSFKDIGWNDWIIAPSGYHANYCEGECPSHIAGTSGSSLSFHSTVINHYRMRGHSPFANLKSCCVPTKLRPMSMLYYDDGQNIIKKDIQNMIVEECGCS


Assays:
Assay in all cases: cell-based or functional assay
activin B = biological target: T1, activin B
GDF-8 = GDF-8 (UniProt O14793 267-375)
GDF-11 = GDF-11 (UniProt O95390 299-407)
UniProt O95390, sequence (O95390 299-407 limits assumed): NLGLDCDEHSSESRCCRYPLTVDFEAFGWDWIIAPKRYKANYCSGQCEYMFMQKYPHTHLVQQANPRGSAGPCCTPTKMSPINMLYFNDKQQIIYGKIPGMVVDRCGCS

BMP-9 = biological target: T2, BMP-9
BMP-10 = biological target: T3, BMP-10
[1] = biological target: T4, recombinant human activin A

Row | Binder | Activin B IC50; TGFβ-reporter HEK293 cells (activin B) [nM] | GDF-8 IC50; TGFβ-reporter HEK293 cells (GDF-8) [nM] | GDF-11 IC50; TGFβ-reporter HEK293 cells (GDF-11) [nM] | BMP-9 IC50; BMP-reporter HepG2 cells (BMP-9) [nM] | BMP-10 IC50; BMP-reporter HepG2 cells (BMP-10) [nM] | Activin A IC50; TGFβ-reporter HEK293 cells [1] [nM]
1 | P753 (Fc fusion) ETRECIYYNANWELERTNQSGLERCEGEQDKRLHCYASWRNSSGTIELVKKGCWLDDFNCYDRQECVAHEENPQVYFCCCEGNFCNERFTHLPEAGGPEVTYEPPPTGGGGSGGGGSGG[human IgG1 Fc and a few adjoining residues not spelt out] | 2.4 | 1.4 | 1.5 | 2.1 | 2.9 | 1.6
2 | P739 (Fc fusion) ETRECIYYNANWELERTNQSGLERCEEEQDKRLHCYASWRNSSGTIELVKKGCWLDDFNCYDRQECVATEENPQVYFCCCEGNFCNERFTHLPEAGGPEVTYEPPPTGGGGSGGGGSGG[human IgG1 Fc and a few adjoining residues not spelt out] | 6 | 2 | 2.1 | 1.1 | 4 | 3.5

Reference: US20260193317A1, “COMBINATION THERAPY WITH ACTRIIB RECEPTOR VARIANTS AND GLP-1 AGONISTS” (35PHARMA Inc., priority 2023, published 2026)
